The list shows a part of the results.
The compounds below were run on T1, C. trachomatis L2/434/Bu expressing GFP (CTL2-GFP). Conditions: total inclusion area; 28.5 h, 10 µM; inhibitor.
T1 construct: L2/434/Bu GFP intracellular growth in HeLa cells
Parameters: species or system HeLa; C. trachomatis total inclusion area by high-content imaging, normalised to DMSO
Outline: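 Bulk GFP and resorufin signals were read first. Wells were then fixed, stained with Hoechst and imaged to detect GFP inclusions and host nuclei. MICs followed the previously described calculation.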

SMILES | % of control remaining
COCCN1C(=O)C2(CC(=O)N(CCCCC(C)C)C2=O)c2cc(OC)ccc21 (stereo not shown) [CBK075145] | 92.877
O=C(c1cccc(F)c1)N1CCC(c2nnc3n2CCCCC3)CC1 [CBK284627] | 97.213
COC(=O)c1sccc1N1C(=O)CSCC1=O [CBK021934] | 69.593
Cc1ccc(C(=O)CCC(=O)CCC(=O)O)cc1 [CBK265546] | 105.384
COc1ccc(C(=O)NC(Nc2ccccc2)C(Cl)(Cl)Cl)cc1OC (stereo not shown) [CBK263680] | 78.5328
CCC(C(=O)N1CCC(O)(c2ccccn2)CC1)c1ccccc1 (stereo not shown) [CBK283768] | 97.4389
O=C(NC[C@H]1C[C@@H]2CC[N@]1C[C@@H]2CN1CCN(c2ccccn2)CC1)Nc1ccsc1 [CBK289113] | 60.0564
O=C(CSc1nnc(-c2ccccc2F)n1-c1ccccc1)Nc1ccc2cn[nH]c2c1 [CBK267591] | 92.0497
O=C(COc1ccc(F)cc1)Nc1ccc2ncccc2c1 [CBK159816] | 119.973
Cc1nn(C)c(C)c1C1CCCN1CC(=O)NCc1ccccn1 (stereo not shown) [CBK305501] | 57.4963
NC(=O)c1ccc(C#Cc2ccccc2)o1 [CBK009809] | 63.6197
O=C(CCc1cccc(F)c1)Nc1cnc(-c2ccc(F)cc2)c(-c2ccoc2)n1 [CBK037077] | 116.415
CN1CCN(CCC(=O)N/N=C/c2ccc3c(c2)OCO3)CC1 [CBK261498] | 96.3341
CC(C)c1ccc(OCC(=O)NCc2ccccn2)c(Br)c1 [CBK265910] | 105.453
CN(CC(=O)N(C)CC(F)(F)F)Cc1cccnc1 [CBK282075] | 102.099
Oc1cccc(-c2nccnc2NCc2ccc(Cl)cc2)c1 [CBK037650] | 102.443
Cc1cnc2n(c1=O)C(CC(=O)NCc1ccncc1)CS2 (stereo not shown) [CBK287671] | 102.876
Cc1noc(C)c1CN1CCC(c2ccccc2)C1 (stereo not shown) [CBK304451] | 94.3118
Cc1nc(CCNC(=O)N(Cc2ccsc2)C2CC2)nc2c1CCCC2 [CBK307674] | 74.0913
COc1ccnc(Sc2ccc(Cl)cc2)c1C#N [CBK018571] | 8.368
O=[N+]([O-])c1ccc2c(c1)C(O)n1nc(-c3ccncc3)nc1S2 (stereo not shown) [CBK288533] | 77.3449

SMILES | % of control remaining
COc1ccc(S(=O)(=O)N2CCN(C(=O)c3cc(-c4ccncc4)nc4ccc(Br)cc34)CC2)cc1 [CBK267750] | 78.6701
CC(Sc1ccccc1)C(=O)NCCCN1CCOCC1 (stereo not shown) [CBK269214] | 106.864
CCc1cccc(NC(=O)NCCC2=CCCCC2)c1 [CBK045009] | 82.1425
COc1ccc(CNC(=O)c2cc(S(=O)(=O)N3CCCC3)cn2C)cc1 [CBK304637] | 66.9064
Cc1cc(NC(=O)c2ccc3[nH]ccc3c2)c2ccccc2n1 [CBK116270] | 78.8456
CN(C)S(=O)(=O)c1ccc(C(=O)Nc2ccc(Br)cc2C(=O)c2ccccc2)cc1 [CBK263243] | 67.0807
COc1ccc(OC)c(NC(=O)C(C)Oc2ccccc2OC)c1 (stereo not shown) [CBK269766] | 51.431
O=C(CCNc1n[nH]c(=O)[nH]c1=O)N/N=C/c1ccc(C(F)(F)F)cc1 [CBK263518] | 104.613
Cc1ccc(C(=O)Nc2nnc(C3=COCCO3)o2)cc1C [CBK287413] | 88.8559
CCOC(=O)c1c(NC(=O)C2C3CCC(C3=C(C)C)C2C(=O)O)sc2c1CCCCC2 (stereo not shown) [CBK265439] | 93.9692
COCC(=O)N1CCc2sccc2C1c1ccc(NCc2ccccc2F)cc1 (stereo not shown) [CBK286446] | 109.907
CC(=O)Nc1ccc(Nc2ncnc3c2cnn3-c2ccc(C)cc2C)cc1 [CBK265803] | 105.214
Cn1cncc1CN1C2CCC1CC(O)(c1ccccc1F)C2 (stereo not shown) [CBK282649] | 108.437
CC(C)CCCC(=O)n1ccn(-c2ccc(N(C)C)cc2)c1=O [CBK106603] | 86.732
COc1cc(OC)c(NS(=O)(=O)c2ccc(C(=O)O)cc2)cc1Cl [CBK296620] | 98.8667
O=C(OCCc1ccncc1)N1CCCC(F)(F)C1 [CBK200157] | 114.105
Cn1cc(CCCNC(=O)c2cccc(CN3CCCCCC3)c2)cn1 [CBK306906] | 109.337
O=C1CC(C(=O)O)SC(NNC(=O)c2ccccc2)=N1 (stereo not shown) [CBK267944] | 112.81
CCN(CC)CCn1c(-c2ccccc2)c(OCCO)c2ccccc2c1=O [CBK010078] | 105.274
O=c1[nH]c(=O)n(Cc2cccnc2)c2nc[nH]c12 [CBK291260] | 90.526
CCc1nc2ccc(C(=O)NCCCN3CCCC3=O)cn2c1N(C)Cc1cccs1 [CBK145536] | 119.085

SMILES | % of control remaining
CN1CCN(Cc2nc3c(c(=O)n(C)c(=O)n3C)n2Cc2c(F)cccc2Cl)CC1 [CBK269179] | 126.489
CC(=O)N1CCC2(C/C=C/C[C@H]3CN(CC(N)=O)CC[C@H]3NC(=O)CNC2=O)CC1 [CBK292148] | 98.6508
COc1ccc2[nH]cc(C3CCN(C(=O)c4cc(C#N)c[nH]4)CC3)c2c1 [CBK305479] | 23.8661
O=C(Cc1ccsc1)N1CCCC1c1nc2ccccc2[nH]1 (stereo not shown) [CBK283740] | 83.1306
CC(=O)Nc1ccc(N2CC34C=CC(O3)C(C(=O)O)C4C2=O)cc1 (stereo not shown) [CBK287020] | 101.774
CN1CCN(c2cncc(-c3ccccc3CO)n2)CC1 [CBK065302] | 126.446
COc1cccc2ncn(CCCn3cccn3)c(=O)c12 [CBK307094] | 91.1526
COc1ccc(-n2c(S)nnc2-c2cc(C(C)(C)C)n[nH]2)cc1 [CBK269071] | 96.2107
CC(C)(C)OC(=O)NCC1CCC(C(=O)O)CC1 (stereo not shown) [CBK278598] | 86.8051
CCC(=O)N1CCC(c2cc(C(F)(F)F)n3nc(C)cc3n2)CC1 [CBK284367] | 60.6821
CN(c1ccccc1)S(=O)(=O)c1ccc(C(=O)NCc2cccnc2)cc1 [CBK297522] | 87.0322
CC12CCC(=O)N1CCCN2Cc1cnn(-c2ccc(F)cc2)c1 (stereo not shown) [CBK281819] | 88.6699
O=C(N[C@@H]1COCC[C@@H]1OCC1CC1)c1cccc2c1NCCC2 [CBK307227] | 81.8733
OC1(c2cccnc2)CCCN(Cc2ccccc2F)CC1 (stereo not shown) [CBK283009] | 104.439
CCCNC(=O)Cc1sccc1NS(=O)(=O)c1ccc(C)cc1 [CBK038118] | 85.72
CC1(C(=O)O)CCC(C(=O)Nc2ccc(F)cc2)C1(C)C (stereo not shown) [CBK286953] | 97.8421
O=C(NCc1ccccc1Cl)N(Cc1cccc(Cl)c1)CC1CCNCC1 [CBK049762] | 80.4119
O=C(Nc1nc2c(s1)CCc1ccccc1-2)C1CC1 [CBK287330] | 111.944
Cc1ccc(OCCCN2CCN(C)CC2)c(Cc2ccccc2)c1 [CBK269650C] | 77.1414
CSc1nc2sc3c(c2c(=O)n1-c1ccccc1C)CC(C)(C)OC3 [CBK091875] | 124.453
COc1ccc(C2(NC(=O)c3cnn(C)c3C)CCCCC2)cc1 [CBK283731] | 74.0228

SMILES | % of control remaining
CCn1cc(CN(Cc2ccccc2)CC2CCCO2)c(C)n1 (stereo not shown) [CBK283265] | 116.369
Cc1c(C(=O)NC2CCN(c3ncccc3C#N)CC2)ccn1C [CBK307681] | 32.4008
CCC(CO)Nc1cncc(-c2cc(C(C)C)ccc2OC)n1 (stereo not shown) [CBK065743] | 59.3189
Cc1cc2n(n1)[C@@H](C(F)F)C[C@@H](C1CCN(C(=O)C(C)C)CC1)N2 [CBK284725] | 108.577
C[C@H](NC(=O)N1CCN(C(=O)c2c[nH]c3ccccc23)CC1)C(=O)O [CBK286581] | 99.0085
O=S(=O)(Nc1nnn[nH]1)c1ccc(-c2cnco2)s1 [CBK062394] | 78.395
COCCOC(=O)N1CCC(N(C)Cc2ccc(-c3ccc(S(C)(=O)=O)cc3)nc2)CC1 [CBK165258T] | 50.0101
O=C(c1ccco1)N1CCC(c2nnc3n2CCCCC3)CC1 [CBK284607] | 103.312
O=C(CCCN1CCN(C(=O)NC2CCC(O)CC2)CC1)c1ccc(F)cc1 (stereo not shown) [CBK025156C] | 105.219
CCOC(=O)c1cnn(C2CCCN(C(=O)c3cscc3C)C2)c1 (stereo not shown) [CBK305385] | 76.2346
COc1cccc(-c2n[nH]c3c2C(c2cccnc2)NC3=O)c1 (stereo not shown) [CBK288238] | 90.5435
CCN(Cc1ccccc1)C(=O)Nc1ccccc1 [CBK012816] | 95.571
N#Cc1ccc(CNC(=O)c2ccc3[nH]ccc3c2)cc1 [CBK149078] | 97.4955
CC(C)(C)OC(=O)N1CCC(c2nc3ccc(F)cc3cc2N)CC1 [CBK284658] | 34.4276
COC(=O)c1sccc1NS(=O)(=O)c1ccc(C(F)(F)F)cc1 [CBK200041] | 82.5343
Cc1[nH]nc(Nc2cccc(C(=O)O)c2)c1[N+](=O)[O-] [CBK262725] | 114.174
CCOC(=O)c1c(C#N)c(SCc2ccc(Cl)cc2)nc2c1CN(CC)CC2 [CBK021337] | 92.5836
N#CCCCN1CCC(Oc2nccnc2OCc2cccc(Cl)c2)CC1 [CBK153642] | 103.147
O=C(O)C1CSC(c2cccnc2)N1 (stereo not shown) [CBK260910] | 110.331

— publication PMC12040169 (PLOS Biology, 2025)
